{"source": "paper PMC4336329", "about": "(PLoS ONE, 2015)", "note": "About 2,200 (0.71%) of roughly 310,000 compounds showed an effect of 50% or more. The effect is printed as a negative number. Some of the results follow.", "data": [{"target": "human ether-à-go-go-related gene (hERG) potassium channel (human, UniProt Q12809)", "sequence (Q12809 whole entry, looked up)": "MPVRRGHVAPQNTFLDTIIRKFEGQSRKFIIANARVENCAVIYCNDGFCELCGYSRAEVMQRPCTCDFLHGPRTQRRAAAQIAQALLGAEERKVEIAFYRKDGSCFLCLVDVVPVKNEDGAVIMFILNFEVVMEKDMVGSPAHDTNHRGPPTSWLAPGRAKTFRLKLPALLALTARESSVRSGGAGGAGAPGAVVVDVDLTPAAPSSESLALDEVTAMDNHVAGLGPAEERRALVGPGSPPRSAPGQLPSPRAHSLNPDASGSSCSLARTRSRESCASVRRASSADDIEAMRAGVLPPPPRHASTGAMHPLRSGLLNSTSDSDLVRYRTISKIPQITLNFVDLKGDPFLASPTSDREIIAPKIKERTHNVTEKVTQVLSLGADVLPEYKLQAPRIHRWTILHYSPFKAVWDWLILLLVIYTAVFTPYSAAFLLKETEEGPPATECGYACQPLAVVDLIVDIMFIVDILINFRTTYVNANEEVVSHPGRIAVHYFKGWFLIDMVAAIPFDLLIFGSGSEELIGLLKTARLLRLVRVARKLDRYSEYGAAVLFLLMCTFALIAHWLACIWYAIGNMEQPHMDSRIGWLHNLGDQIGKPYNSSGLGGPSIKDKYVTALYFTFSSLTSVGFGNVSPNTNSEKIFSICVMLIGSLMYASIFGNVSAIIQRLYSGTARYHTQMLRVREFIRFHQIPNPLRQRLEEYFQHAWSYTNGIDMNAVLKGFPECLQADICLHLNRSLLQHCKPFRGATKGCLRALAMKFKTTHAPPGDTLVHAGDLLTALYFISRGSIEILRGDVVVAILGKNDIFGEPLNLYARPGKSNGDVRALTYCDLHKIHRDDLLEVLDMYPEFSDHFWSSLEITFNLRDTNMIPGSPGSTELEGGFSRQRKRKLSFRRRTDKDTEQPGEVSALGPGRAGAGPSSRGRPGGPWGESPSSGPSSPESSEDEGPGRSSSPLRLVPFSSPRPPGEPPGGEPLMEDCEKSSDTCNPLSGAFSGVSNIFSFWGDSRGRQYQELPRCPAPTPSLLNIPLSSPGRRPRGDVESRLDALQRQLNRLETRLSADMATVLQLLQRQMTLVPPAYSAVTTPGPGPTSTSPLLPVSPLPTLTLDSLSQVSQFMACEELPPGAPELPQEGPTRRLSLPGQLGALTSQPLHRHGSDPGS", "experiment": "primary screen, population patch clamp on CHO cells stably expressing hERG", "units": {"hERG current change (%, negative = inhibition) at 1uM": "%"}, "values": [{"molecule": "CCC(NS(=O)(=O)c1cn(C)nc1C)c1ccccc1", "note": "(centres unmarked)", "hERG current change (%, negative = inhibition) at 1uM": 17.9}, {"molecule": "O=C1CCCC2=C1Sc1ccccc1N2", "hERG current change (%, negative = inhibition) at 1uM": 14.4}, {"molecule": "Cc1n[nH]c(=O)c2c(NC(=O)CSc3nn(-c4ccc(F)cc4)c(=S)s3)oc(C)c12", "hERG current change (%, negative = inhibition) at 1uM": 5.51}, {"molecule": "Cc1ccc(S(=O)(=O)N2CCCCC2)cc1NC(=O)CCOc1ccccc1", "hERG current change (%, negative = inhibition) at 1uM": 5.97}, {"molecule": "Cc1cc(NS(=O)(=O)c2ccc(NC(=O)/C=C/c3ccc(Br)cc3)cc2)no1", "hERG current change (%, negative = inhibition) at 1uM": 17.1}, {"molecule": "COc1ccc(C(C)=O)cc1CC(=O)N(Cc1ccccc1)c1ccccc1", "hERG current change (%, negative = inhibition) at 1uM": 0.862}, {"molecule": "CCC1CN(C(=O)N2CCC(C(=O)Nc3ccccc3OC)CC2)c2ccccc2O1", "note": "(centres unmarked)", "hERG current change (%, negative = inhibition) at 1uM": 26}, {"molecule": "O=C(CCc1ccccc1)N/N=C\\c1cc2c(cc1Br)OCO2", "hERG current change (%, negative = inhibition) at 1uM": 16}, {"molecule": "O=c1[nH]cc([N+](=O)[O-])cc1Br", "hERG current change (%, negative = inhibition) at 1uM": 2.99}, {"molecule": "Nc1cccc2cc(-c3ccccc3)oc12", "hERG current change (%, negative = inhibition) at 1uM": -9.47}, {"molecule": "CC(=O)c1sc(-c2ccccn2)nc1C", "hERG current change (%, negative = inhibition) at 1uM": 14.2}, {"molecule": "CCc1cccc(CC)c1NC(=O)C1CN(S(=O)(=O)c2ccccc2)CCN1S(=O)(=O)c1ccccc1", "note": "(centres unmarked)", "hERG current change (%, negative = inhibition) at 1uM": 19.2}, {"molecule": "CC(=O)c1cc(-c2ccccc2)n(CC(=O)N2CCCC2)c1C", "hERG current change (%, negative = inhibition) at 1uM": 3.14}, {"molecule": "CCOc1ccc(OCc2cccc(C(=O)N3CCOCC3)c2)cc1", "hERG current change (%, negative = inhibition) at 1uM": 16.3}, {"molecule": "O=C(O)C(Br)CBr", "note": "(centres unmarked)", "hERG current change (%, negative = inhibition) at 1uM": 16.5}, {"molecule": "Nc1nnc(SCC(=O)Nc2sc3c(c2C(=O)c2ccccc2)CCCC3)s1", "hERG current change (%, negative = inhibition) at 1uM": 1.07}, {"molecule": "CN1CCN(CCCNC(=O)c2ccc(NC(=O)C3=CSCCO3)cc2)CC1", "hERG current change (%, negative = inhibition) at 1uM": 10.4}, {"molecule": "CC(OC(=O)/C=C/c1ccccc1)C(=O)Nc1ccc2c(c1)OCCO2", "note": "(centres unmarked)", "hERG current change (%, negative = inhibition) at 1uM": 12.4}, {"molecule": "CC(CSc1nc2ccccc2s1)Cn1c(N2CCCC2)nc2c1c(=O)[nH]c(=O)n2C", "note": "(centres unmarked)", "hERG current change (%, negative = inhibition) at 1uM": -4.43}, {"molecule": "O=C(CSc1ncnc2c1oc1ccccc12)Nc1nc2ccccc2s1", "hERG current change (%, negative = inhibition) at 1uM": 13.1}, {"molecule": "COc1cc(CCC(=O)NCc2ccc3c(c2)OCO3)cc(OC)c1OC", "hERG current change (%, negative = inhibition) at 1uM": 6.33}, {"molecule": "Cc1nonc1C1CCCN1Cc1cn[nH]c1-c1ccc(-c2ccccc2)cc1", "note": "(centres unmarked)", "hERG current change (%, negative = inhibition) at 1uM": -26.6}, {"molecule": "CC1CCCCN1C(=O)CSc1nnc(-c2cccnc2)n1C1CCCCC1", "note": "(centres unmarked)", "hERG current change (%, negative = inhibition) at 1uM": -9.3}, {"molecule": "C/C(=N\\Nc1ccc(C(F)(F)F)cn1)c1ccncc1", "hERG current change (%, negative = inhibition) at 1uM": 9.26}, {"molecule": "CC(=O)Nc1nc(C(=O)Nc2c(C)n[nH]c2C)cs1", "hERG current change (%, negative = inhibition) at 1uM": 0.673}, {"molecule": "Cc1ccc(N(CC(=O)NC2CCCCC2)C(=O)CCC(=O)Nc2nccs2)cc1", "hERG current change (%, negative = inhibition) at 1uM": 2.02}, {"molecule": "O=c1c2ccccc2sn1-c1cc(S(=O)(=O)N2CCOCC2)ccc1N1CCOCC1", "hERG current change (%, negative = inhibition) at 1uM": 15.5}, {"molecule": "Cc1cccc2cc(CN(CCCO)C(=O)Nc3ccccc3Cl)c(=O)[nH]c12", "hERG current change (%, negative = inhibition) at 1uM": 7.42}, {"molecule": "COc1ccc2c(C)c(CC(=O)N3C[C@H]4C[C@@H](C3)c3cccc(=O)n3C4)c(=O)oc2c1", "hERG current change (%, negative = inhibition) at 1uM": -8.73}, {"molecule": "COc1ccc(/C=N/Nc2cn[nH]c(=O)c2Cl)cc1", "hERG current change (%, negative = inhibition) at 1uM": 13.3}, {"molecule": "Cc1ccccc1P(=O)(CO)c1ccccc1C", "hERG current change (%, negative = inhibition) at 1uM": -3.03}, {"molecule": "CCOC(=O)COc1ccc(Oc2nc(C)cc(OC)n2)nn1", "hERG current change (%, negative = inhibition) at 1uM": -5.04}, {"molecule": "O=C(Nc1ccc(S(=O)(=O)Nc2ccc(F)cc2)cc1)c1ccc(CN2CCOCC2)cc1", "hERG current change (%, negative = inhibition) at 1uM": 2.42}, {"molecule": "CCCn1c(=O)c(C(=O)NNS(=O)(=O)c2ccc(NC(=O)OC)cc2)c(O)c2ccccc21", "hERG current change (%, negative = inhibition) at 1uM": 11.8}, {"molecule": "CCc1nnc(NC(=O)CCC(=O)NCC2CCCO2)s1", "note": "(centres unmarked)", "hERG current change (%, negative = inhibition) at 1uM": -9.38}, {"molecule": "CCOC(=O)c1c(C)[nH]c(C)c1C(=O)COC(=O)/C=C/c1ccc(OC(F)F)cc1", "hERG current change (%, negative = inhibition) at 1uM": 0.906}, {"molecule": "Cc1ccc2nc(-c3cccnc3)cc(C(=O)N3CCN(c4ccc([N+](=O)[O-])cc4)CC3)c2c1", "hERG current change (%, negative = inhibition) at 1uM": -24}, {"molecule": "CCCOc1ccc(N2C(=O)CC(NCc3ccc(S(N)(=O)=O)cc3)C2=O)cc1", "note": "(centres unmarked)", "hERG current change (%, negative = inhibition) at 1uM": 7.72}, {"molecule": "CSc1nc2[nH]c3c(c2c2nncn12)CC(C)(C)OC3", "hERG current change (%, negative = inhibition) at 1uM": 6.38}, {"molecule": "Cc1ccc(C)c(S(=O)(=O)N/N=C/c2cccnc2)c1", "hERG current change (%, negative = inhibition) at 1uM": 4.13}, {"molecule": "N#Cc1ccc(C(=O)NCCCSc2ccccc2)cc1", "hERG current change (%, negative = inhibition) at 1uM": 6.75}, {"molecule": "CN1CCN(C(=O)CCCN2C(=O)/C(=C/c3ccccc3)SC2=S)CC1", "hERG current change (%, negative = inhibition) at 1uM": 5.29}, {"molecule": "CCn1nc2cc(C(=O)NCC34CC5CC(CC(C5)C3)C4)ccc2c1OC", "hERG current change (%, negative = inhibition) at 1uM": 5.1}, {"molecule": "O=C(NCCc1ccccc1Cl)C1CCC(=O)N(CCCc2ccccc2)C1", "note": "(centres unmarked)", "hERG current change (%, negative = inhibition) at 1uM": -10.7}, {"molecule": "CC1(C)Cc2c(sc3nc4n(c(=N)c23)CCCCC4)CO1.Cl", "hERG current change (%, negative = inhibition) at 1uM": 6.04}, {"molecule": "COCCCN1CCN(C2Cc3ccccc3Sc3ccc(Cl)cc32)CC1.O=C(O)/C=C\\C(=O)O", "note": "(centres unmarked)", "hERG current change (%, negative = inhibition) at 1uM": -43.4}, {"molecule": "COC(=O)c1cc(O)cc(OC)c1C(=O)c1c(O)cc(C)cc1O", "hERG current change (%, negative = inhibition) at 1uM": 10.2}, {"molecule": "Cc1ccc(NC(=O)COC(=O)C2=NN(c3ccccc3)C(=O)CC2)c(Br)c1", "hERG current change (%, negative = inhibition) at 1uM": 2.03}, {"molecule": "CC(C)=C1C(=O)NN(c2ccc(F)c(Cl)c2)C1=O", "hERG current change (%, negative = inhibition) at 1uM": 21.3}, {"molecule": "CC(C)CCN1CCN(Cc2cc(F)ccc2-n2cccn2)CC1CCO", "note": "(centres unmarked)", "hERG current change (%, negative = inhibition) at 1uM": -6.05}, {"molecule": "CCN1CCc2c(OCC(=O)Nc3ccc4c(c3)OCCO4)cccc2C1=O", "hERG current change (%, negative = inhibition) at 1uM": 8.67}, {"molecule": "Cc1cc(C)nc(N/C(=N\\S(=O)(=O)Cc2ccccc2)Nc2ccc(F)c(Cl)c2)n1", "hERG current change (%, negative = inhibition) at 1uM": 4.12}, {"molecule": "Nc1nnc(Cc2ccccc2F)s1", "hERG current change (%, negative = inhibition) at 1uM": 8.53}, {"molecule": "CC1CC(C)CN(CCCNC(=O)C2CCCN(c3nnc(N4CCCC4=O)s3)C2)C1", "note": "(centres unmarked)", "hERG current change (%, negative = inhibition) at 1uM": 7.48}, {"molecule": "Cc1c(Cl)cccc1NC(=O)CC1SC(=NCC2CCCO2)NC1=O", "note": "(centres unmarked)", "hERG current change (%, negative = inhibition) at 1uM": 6.98}, {"molecule": "COc1ccccc1NC(=O)C(C)OC(=O)C1CCN(S(=O)(=O)c2ccc(C)c(C)c2)CC1", "note": "(centres unmarked)", "hERG current change (%, negative = inhibition) at 1uM": 8.18}]}]}
